From PubChem BioAssay AID488896 (Broad Institute, 2010)
The campaign covered roughly 320,000 compounds. About 3,100 (0.97%) were called active. The inconclusive results got no clear call from the source; some entries with a clear call stand among them for comparison.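 The calls were made as follows: active = mean replicate inhibition of at least 70% and a set share of replicates each scoring 70 or more; inconclusive = meets just one of the two criteria; inactive = fails both criteria.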

The compounds below were run against Scavenger receptor class B member 1 (Mus musculus) (UniProt Q61009) (assay: inhibitors of SR-BI mediated HDL lipid uptake, primary screen, ldlA[mSR-BI] cells, fluorescence, single point (AID 488896;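 also: 0% = median of neutral control wells and 100% = median of positive control wells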)). Details: ldlA[mSR-BI] CHO cells, DiI-HDL uptake fluorescence, 3 h; at 12.5 µM; stronger effect = higher value.
Chain of UniProt Q61009 (Q61009 whole entry, looked up): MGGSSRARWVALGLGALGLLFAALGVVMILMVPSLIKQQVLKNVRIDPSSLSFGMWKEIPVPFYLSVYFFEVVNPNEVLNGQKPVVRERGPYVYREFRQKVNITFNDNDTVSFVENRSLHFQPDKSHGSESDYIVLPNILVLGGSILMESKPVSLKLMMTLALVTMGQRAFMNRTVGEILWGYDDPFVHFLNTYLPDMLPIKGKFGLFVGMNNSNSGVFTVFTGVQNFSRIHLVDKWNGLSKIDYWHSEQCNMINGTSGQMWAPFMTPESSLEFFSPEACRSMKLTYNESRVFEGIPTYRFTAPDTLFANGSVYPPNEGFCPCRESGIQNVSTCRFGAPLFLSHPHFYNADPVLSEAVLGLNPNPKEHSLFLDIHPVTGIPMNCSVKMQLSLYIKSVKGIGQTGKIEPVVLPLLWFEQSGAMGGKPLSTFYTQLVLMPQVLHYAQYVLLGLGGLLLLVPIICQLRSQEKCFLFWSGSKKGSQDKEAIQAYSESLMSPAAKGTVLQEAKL
`O=C(Nc1ccc(N2CCN(C(=O)c3cccs3)CC2)cc1)c1ccccc1Cl` was tested, and the inhibition was inconclusive: 72.2%.
In the case of `N#C/C(=C\Nc1ccc2cn[nH]c2c1)c1nc(-c2ccc(Cl)cc2)cs1`, the inhibition is reported as inconclusive: 72.2%.
`O=C(CSC1=NCCN1)Nc1cccc([N+](=O)[O-])c1` was tested, and the inhibition was active: 81.7%.
With `Cc1ccc(-n2nc(C)c3c(C(=O)OCC(=O)N(C)C4CCS(=O)(=O)C4)cc(-c4ccccc4)nc32)cc1` (centres undefined) the inhibition was inconclusive: 70.3%.
For `CCOc1ccccc1NC(=O)Cn1nnc(C(=O)NCCc2ccc(OC)c(OC)c2)c1N`, the inhibition was inconclusive: 72.6%.
`CC(=O)Nc1ccc(NC(=O)c2cc(C3CC3)nc3c2cnn3C(C)C)cc1` was tested, and the inhibition was inconclusive: 74.6%.
With `O=C(N/N=C/c1cccc(Oc2ccccc2)c1)c1cccc(O)c1` the inhibition was inactive: 30.6%.
`COc1cc(/C=C(\C#N)c2nc3ccccc3s2)ccc1OCC(=O)Nc1ccccc1` was tested, and the inhibition was inconclusive: 70.5%.
With `COc1cc(C(=O)Nc2nnc(C3CC3)s2)ccc1OCc1c(C)noc1C` the inhibition was active: 87.5%.
With `Cc1ccc(S(=O)(=O)N2CCOCC2)cc1C(=O)OCc1nnc(-c2ccccc2)o1` the inhibition was inconclusive: 71.8%.
For `COc1ccc(OC)c(/C=C/C(=O)Nc2ccc3c(c2)CCC3)c1`, the inhibition was inconclusive: 70.5%.
For `CCN(CC)S(=O)(=O)c1ccc(NC(=O)c2ccc(Cl)nc2)cc1`, the inhibition was active: 76.2%.
With `COC(=O)c1c(C(=O)OC)c(-c2ccc(Cl)c(Cl)c2)n2c1CCC2` the inhibition was inactive: 39.3%.
In the case of `O=C(Nc1cc2c3c(c1)CC(=O)N3CCC2)c1ccc(Cl)cc1`, the inhibition is reported as active: 78.7%.
For `CCCO/N=C1/C(=O)N(c2ccccc2)c2ccccc21`, the inhibition was inconclusive: 71.9%.
With `COc1ccccc1OCC(=O)Nc1nc(-c2ccc(S(=O)(=O)N3CCOCC3)cc2)cs1` the inhibition was active: 73%.
For `CCOc1cc(C(=O)Nc2nnc(C)s2)cc(OCC)c1OCC`, the inhibition was inactive: 54%.
For `CCN(CC)c1ccc(C(=O)OCC(=O)Nc2cc3oc4ccccc4c3cc2OC)cc1`, the inhibition was inconclusive: 70.6%.
In the case of `Cc1ccc(/C=C2/Sc3ccccc3N(CC(=O)NCC3CCCO3)C2=O)cc1` (centres undefined), the inhibition is reported as inconclusive: 70.9%.
In the case of `COc1ccc(NS(=O)(=O)c2c(C)cc(C)cc2C)cc1`, the inhibition is reported as inactive: -29.7%.
With `N#C/C(=C\Nc1ccc2c(c1)OCCO2)c1nc2ccccc2[nH]1` the inhibition was inconclusive: 72.2%.
`O=c1cc(N2CCCCC2)c(-c2ccccc2)nn1Cc1cccc(F)c1` was tested, and the inhibition was inconclusive: 71.9%.
With `COc1cc(/C=N/NC(=O)C(=O)/C=C2\NC3(CCCC3)Cc3ccccc32)ccc1O` the inhibition was inconclusive: 70.2%.
In the case of `CCOC(=O)N1CCN(C(=O)c2ccc3c(c2)sc2nc(-c4ccc(OC)cc4)cn23)CC1`, the inhibition is reported as inconclusive: 70.2%.
